Data: PubChem BioAssay AID1346428 (National Center for Advancing Translational Sciences (NCATS), 2018)
Among all 48,000 compounds or so, about 1,200 (2.5%) were called active. Roughly 2% stayed inconclusive and do not appear here.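 How the source made its calls: active means activation of at least 60% and not above a set upper limit (about 1 call in 100 departs from these limits); inconclusive means activation of 40% to 60%, or above that upper limit; inactive means activation under 40%.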 This is one part of the list. A structure can be active in one record and inactive in another.

Target: Probable G-protein coupled receptor 32 (Homo sapiens) (UniProt O75388)
Assay: qHTS for Agonists of Human Resolvin D1 Receptor DRV1
Conditions: CHO-K1 GPR32 beta-arrestin PathHunter luminescence, 90 min; at 76.9 µM; hits give high values; zero percent set by DMSO-only wells
Procedure, shortened: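 Using DMSO wells as EC0, agonist-induced signal was taken as chemiluminescence from beta-Gal reconstituted upon beta-arrestin recruitment to GPR32 in CHO-K1 cells after 90 min compound treatment.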

Chain of UniProt O75388 (O75388 whole entry, looked up): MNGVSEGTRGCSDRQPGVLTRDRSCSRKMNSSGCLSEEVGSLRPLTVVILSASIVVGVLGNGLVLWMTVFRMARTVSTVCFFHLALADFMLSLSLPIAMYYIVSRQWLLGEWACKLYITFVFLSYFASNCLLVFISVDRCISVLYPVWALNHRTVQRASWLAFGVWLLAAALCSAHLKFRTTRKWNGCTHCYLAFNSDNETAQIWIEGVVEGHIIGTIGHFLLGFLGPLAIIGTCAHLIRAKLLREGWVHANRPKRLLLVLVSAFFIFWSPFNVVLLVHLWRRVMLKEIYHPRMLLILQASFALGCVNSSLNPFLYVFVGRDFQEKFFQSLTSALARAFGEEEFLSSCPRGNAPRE

SMILES | activation
CC(=O)N1CCCc2cc(S(=O)(=O)N(C)CC(=O)Nc3ccc(Cl)cc3C)ccc21 | inactive: 27%
N=C(N)c1ccc2cc(OC(=O)c3ccc(N=C(N)N)cc3)ccc2c1 | inactive: -31.6%
Cc1c(NC(=O)c2ccccc2F)cccc1-c1nc2cccnc2s1 | inactive: -16.6%
Cc1ccc(Nc2nc3ccccc3c3nncn23)cc1C | inactive: 43.8%
CCCN(CCC)C(=O)C1CCN(c2ncnc3c2nc2n3CCCCC2)CC1 | inactive: -2.65%
COc1ccc(CNC(=O)C(C(C)C)N2Cc3ccccc3C2=O)cc1 (stereo not drawn) | inactive: -14.8%
COc1ccc2c(c1)CCc1c(C(=O)Nc3c(C)nn(Cc4ccc(C)cc4)c3C)noc1-2 | inactive: -0.748%
Cc1ccc(C)c(NC(=O)c2cc(S(=O)(=O)NCCC3=CCCCC3)ccc2F)c1 | inactive: -15.5%
O=c1c(S(=O)(=O)c2ccccc2)cn(Cc2ccc(F)cc2)c2cc(N3CCCCC3)c(F)cc12 | inactive: -8.38%
CCOc1ccc(CCNC(=O)CN(c2ccc(C)cc2)S(=O)(=O)N(C)C)cc1OCC | inactive: 3.48%
CC1Cn2cc(C(=O)Nc3cccc(C(F)(F)F)c3)c(=O)c3c(Cl)ccc(c32)O1 (stereo not drawn) | inactive: 5.11%
Cc1ccc(-c2onc(C)c2C)cc1S(=O)(=O)NC1CCCCC1 | inactive: -19.6%
COC(=O)c1nnn(CC(=O)Nc2ccc(Br)c(C)c2)c1N | inactive: 19.1%
Cc1ccc(-n2c(=O)c3c(c4cc(C)ccc4n3C)n(CC(=O)Nc3cc(C)cc(C)c3)c2=O)cc1 | inactive: -1.55%
C[C@H]1C[C@@H]2[C@H]([C@@H](O)C[C@@]3(C)[C@H]2CC[C@]3(O)C(=O)CO)[C@@]2(C)C=CC(=O)C=C12 | inactive: -6.15%
CCOC(=O)c1ccc(NC(=O)Cn2cc(C(=O)c3ccc(Cl)cc3)c(=O)c3ccc(C)nc32)cc1 | inactive: 7.09%
COc1cc(OC)cc(-c2nc3nc(C)c(CCC(=O)Nc4cc(F)ccc4F)c(C)n3n2)c1 | inactive: -1.17%
COc1ccc(N2CC(NC(=O)c3ccc(S(=O)(=O)N4CCCCC4)cc3)CC2=O)cc1OC (stereo not drawn) | inactive: 18.5%
Cc1cccc(NC(=O)c2cc(S(=O)(=O)N3CCC4(CC3)OCCO4)ccc2F)c1 | inactive: -21.2%
CCSc1ncc(Cl)c(C(=O)Nc2c(C(=O)c3ccccc3)oc3ccccc23)n1 | inactive: 1.76%
Cc1nc2cc(-c3ccccc3)nn2c(C)c1CCC(=O)N1CCN(c2ccccc2)CC1 | inactive: 0.462%

SMILES | activation
Cc1ccccc1CN1CCN(CC(=O)NCc2ccccc2Cl)C1=O | inactive: -19.1%
COc1ccc2oc(-c3ccc(C)c(NC(=O)Cc4ccc(Cl)cc4)c3)nc2c1 | inactive: 0.567%
Cn1cnc2c(=O)oc3ccc(S(=O)(=O)N4CCN(c5cccc(Cl)c5)CC4)cc3c21 | inactive: 4.7%
Cc1cccc(-c2nc(Cn3c(SCc4cccc(C(F)(F)F)c4)nc4ccncc43)c(C)o2)c1 | inactive: -12.5%
Cc1c(NC(=O)c2cc(=O)c3cc(Cl)ccc3o2)c(=O)n(-c2ccccc2)n1C | inactive: 0.516%
Fc1ccc2c(c1)NC(c1ccncc1)=NC(c1cccs1)=N2 | inactive: -0.659%
Cc1nc2c(C(=O)NC(C)c3ccccc3)cnn2c(C)c1Cc1ccccc1 (stereo not drawn) | inactive: -30.5%
COC(=O)c1cc2occc2n1Cc1nc(-c2ccc(C)cc2)oc1C | inactive: -33.7%
CCC(=O)Nc1nnc(S(=O)(=O)N2CCc3ccccc32)s1 | inactive: -4.49%
CCn1cc2nc(SCc3ccccc3F)n(Cc3ccc(C)cc3)c(=O)c2n1 | inactive: -0.997%
Cc1ccc(NC(=O)CCS(=O)(=O)c2cccc3nsnc23)c(C)c1 | inactive: 17.8%
CCN(Cc1ccccc1)C(=O)CN1C(=O)COc2ccc(S(=O)(=O)N3CCCCCC3)cc21 | inactive: -48.3%
CCOc1ccc(NC(=O)CCS(=O)(=O)c2ccc3c(c2)n(C)c(=O)c(=O)n3C)cc1 | inactive: -10.8%
Cc1ccc2cccc(NC(=O)C(C)(C)Oc3ccc(Br)cc3)c2n1 | inactive: -4.79%
CCCS(=O)(=O)Nc1cc2c(cc1NCc1ccccc1)n(C)c(=O)n2C | inactive: 30%
CCOc1ccc(NC(=O)CSc2nc(-c3ccc(F)cc3)cc(C(F)(F)F)c2C#N)cc1 | inactive: -11.6%
CCOC(=O)c1ccccc1NC(=O)Cn1c2ncccc2c(=O)n1-c1ccccc1 | inactive: 8.48%
Cc1ccc(C)c(N2CCN(Cc3nnc(-c4ccccc4)o3)CC2)c1 | inactive: -12.3%
COc1cccc(C(=O)c2cn(CC(=O)Nc3cccc(C)c3C)c3nc(C)ccc3c2=O)c1 | inactive: -3.29%
CCOC(=O)CSc1nc2ccc(NC(=O)c3ccccc3)cc2s1 | active: 82%
COc1cc(-c2nnc(SCCOc3ccc(C)c(Cl)c3)o2)cc(OC)c1OC | inactive: -9.55%

SMILES | activation
CCOCCCn1c(SCC(=O)Nc2ccc(OC)cc2OC)nc2ccccc2c1=O | inactive: -12.9%
Cc1ccc(CN2CCc3nc(SCC(=O)Nc4cccc(C)c4C)[nH]c(=O)c3C2)cc1 | inactive: 11.4%
Cc1cccc(C)c1NC(=O)Cn1nc(C)c2sc3ccccc3c2c1=O | inactive: -9.05%
COc1ccc(-c2cn3c(n2)sc2cc(C(=O)Nc4cc(Cl)ccc4C)ccc23)cc1 | inactive: -4.79%
CCc1ccc(C(=O)Nc2ccc3nn(-c4ccc(C)c(Cl)c4)nc3c2)cc1 | inactive: -6.18%
COC(=O)c1c(NC(=O)CCCOc2ccccc2C)sc2c1CCC(C)C2 (stereo not drawn) | inactive: 30.1%
Cc1ccc(OCc2nc(-c3ccc(C(=O)NCCc4ccc(S(N)(=O)=O)cc4)cc3)oc2C)cc1 | active: 82.3%
CCc1ccc(NC(=O)CCCc2nc(-c3ccco3)no2)cc1 | inactive: -1.05%
COc1cc2[nH]c(=O)n(CCCC(=O)NCc3ccccc3)c(=O)c2cc1OC | inactive: -0.346%
COc1ccc(CNC(=O)c2c(Nc3ccccc3C)sc(C(=O)c3ccccc3)c2N)cc1 | inactive: -84.2%
O=C(Nc1ccc2nc(SCC(=O)N3CCCC3)sc2c1)c1ccccc1F | inactive: 2.56%
COc1ccccc1CNC(=O)CN1C(=O)CCc2cc(S(=O)(=O)N3CCOCC3)ccc21 | inactive: 33.1%
COc1ccc(NC(=O)c2cc(-c3ccccc3O)no2)cc1 | inactive: -7.88%
Cc1ccc(NC(=O)CN2C(=O)CCc3cc(S(=O)(=O)N4CCCCC4)ccc32)cc1N(C)C | inactive: 14.5%
CC1CN(C(=O)N2CCC(C(=O)NCc3ccco3)CC2)c2cc(Cl)ccc2O1 (stereo not drawn) | inactive: 3.17%
CCOC(=O)c1sc2ccccc2c1S(=O)(=O)N1CCN(c2ccccc2)CC1 | inactive: -16.7%
CCOC(=O)c1cccc(N)c1 | inactive: 5.1%
O=C(CSc1nc(-c2cccs2)nc2cc(=O)[nH]n12)Nc1ccc(F)cc1 | inactive: -37.5%
CCOC(=O)c1cnc2c(C(F)(F)F)cccc2c1Nc1cccc(C(=O)OC)c1 | inactive: -6.85%
CCOc1ccccc1NC(=O)CSc1nc2c(oc3ccccc32)c(=O)n1Cc1ccco1 | inactive: -28.7%
Cc1ccc(Cl)cc1NC(=O)CSc1nc(C)c(C)c(C)c1C#N | active: 115%

SMILES | activation
COc1ccc(-c2noc(CSc3nnc(-c4ccc(Cl)cc4)n3C)n2)cc1OC | inactive: 0.748%
COc1ccc(CCNC(=O)Cn2cc(S(=O)(=O)Cc3cccc(Cl)c3)c3ccccc32)cc1OC | inactive: -7.82%
CCc1cnc2c(c1SCC(=O)Nc1cc(Cl)ccc1OC)c(=O)n(C)c(=O)n2C | inactive: 8.67%
CC(C)c1ccc(NC(=O)CSc2nc(=O)n(Cc3cccnc3)c3c2CCC3)cc1 | inactive: 0.114%
CN1CCN(C(=O)Nc2cccc(Cl)c2)c2cccnc21 | inactive: 27.7%
Cc1ccc(CNC(=O)C2CCCN(S(=O)(=O)c3ccc4c(ccn4C)c3)C2)cc1 (stereo not drawn) | inactive: -0.631%
CCCCN(CCCC)CCNC(=O)c1cc(=O)[nH]c2ccc(S(=O)(=O)N3CCCCCC3)cc12 | inactive: -12.4%
CCc1ccc(CNC(=O)C2CCN(C(=O)N3CC(CC)Oc4ccc(C)cc43)CC2)cc1 (stereo not drawn) | inactive: -21.1%
Cc1cc(C)c(NC(=O)CSc2ncc(S(=O)(=O)c3ccc(C(C)(C)C)cc3)c(=O)[nH]2)c(C)c1 | inactive: 46.5%
O=C(NC1CCCC1)c1ccc2c(c1)N(Cc1ccccc1Cl)C(=O)c1ccccc1S2 | inactive: -12.5%
COc1ccccc1Nc1c2c(nc3ccc(NC(=O)c4cccc(F)c4)cc13)CCCC2 | inactive: -0.372%
COc1ccccc1CNC(=O)CS(=O)Cc1nc(-c2ccc(OC)c(OC)c2)oc1C (stereo not drawn) | inactive: -16.1%
CC(=O)c1nn(-c2ccc(OC(F)(F)F)cc2)nc1Nc1ccc(C)cc1 | inactive: 5.96%
CCOC(=O)c1ccc(NC(=O)C2CCN(S(=O)(=O)c3ccc(C)cc3)CC2)cc1 | inactive: -1.33%
COc1ccc(Nc2cc(C)c3cc(NC(=O)Cc4c(F)cccc4Cl)ccc3n2)cc1 | inactive: 17.2%
CCN(Cc1ccccc1)C(=O)C1CCN(S(=O)(=O)c2c(C)noc2/C=C/c2ccc(C)cc2)CC1 | inactive: -20%
Cc1ccc2nc(-c3ccc(NC(=O)COc4ccc(Cl)c(C)c4)cc3)sc2c1 | inactive: -4.67%
CCC1CN(C(=O)N2CCC(C(=O)O)CC2)c2cc(C)ccc2O1 (stereo not drawn) | inactive: 4.63%
CCCNCC(O)COc1ccccc1C(=O)CCc1ccccc1 (stereo not drawn) | inactive: 2.25%
Cc1ccc(CCNC(=O)c2ccc(CSCc3ccccc3C)o2)cc1 | inactive: -23.3%
